Measurements reported in the supplement of paper PMC4967469.
IC50 is the fitted dose that halves viability relative to control wells, and lower means more sensitive; fits outside the tested doses are given as limits. AUC sums up the same curve from the lowest dose to the 256-fold higher top dose: 1 means no effect, lower means more sensitive. The top dose, if marked as inferred, comes from the curve model; the source does not state it. For some of these results: Drugs with an entry number were screened twice under separate entries, and the two screens often disagree.

Experiments:
[1] = compound: O=c1[nH]c2ccccc2n1C1CCN(Cc2ccc(-c3[nH]c4cc5ncnc5cc4nc3-c3ccccc3)cc2)CC1 [AKT inhibitor VIII]; test: Viability of human cancer cell lines after 72 h of drug (GDSC screen); details: top dose inferred
Description: (§1)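 Human cancer cell lines in 384-well plates, medium with 10% serum, drug for 72 h over a 256-fold dose range (nine 2-fold or five 4-fold steps up to the top dose). Adherent lines were fixed and stained with the nucleic acid dye Syto60, suspension lines read with resazurin; signal relative to control wells, capped at 0 and 100%. One two-parameter sigmoid per drug and line, fitted in a mixed model over all curves with the slope shared within a line.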

[2] = compound: NC(=O)c1ncn([C@@H]2O[C@H](CO)[C@@H](O)[C@H]2O)c1N [AICAR]; test: as above; details: top dose 2000 µM; top dose inferred
Description: as §1

[3] = top dose 2.56 µM, screen: GDSC drug entry 171
[4] = top dose 10.24 µM, screen: GDSC drug entry 228

| Cell Line | AUC [1, 3] | IC50 [1, 3] | AUC [1, 4] | IC50 [1, 4] | AUC [2] | IC50 [2] |
| --- | --- | --- | --- | --- | --- | --- |
| Calu-6 (lung adenocarcinoma, adherent) | 0.959 | > 2.56 µM | 0.971 | > 10.2 µM | 0.729 | 624 µM |
| NCI-H1703 (lung adenocarcinoma, adherent) | 0.926 | > 2.56 µM | 0.828 | 8.25 µM | 0.915 | > 2000 µM |
| JHH-7 (liver, adherent) | 0.957 | > 2.56 µM | 0.972 | > 10.2 µM | 0.978 | > 2000 µM |
| 8-MG-BA (glioma, adherent) | 0.938 | > 2.56 µM | 0.92 | > 10.2 µM | 0.899 | > 2000 µM |
| OV-7 (ovary, adherent) |  |  | 0.899 | > 10.2 µM | 0.934 | > 2000 µM |
| PA-TU-8988T (pancreas, adherent) | 0.942 | > 2.56 µM | 0.983 | > 10.2 µM | 0.82 | 1150 µM |
| NCI-H1688 (small cell lung carcinoma, adherent) | 0.943 | > 2.56 µM | 0.843 | 8.41 µM | 0.917 | > 2000 µM |
| Mewo (melanoma, adherent) | 0.972 | > 2.56 µM | 0.979 | > 10.2 µM | 0.861 | > 2000 µM |
| MDA-MB-231 (breast, adherent) | 0.979 | > 2.56 µM | 0.916 | > 10.2 µM | 0.837 | 1450 µM |
| MDA-MB-436 (breast, adherent) | 0.946 | > 2.56 µM | 0.946 | > 10.2 µM | 0.929 | > 2000 µM |
| D-566MG (glioma, adherent) |  |  | 0.769 | 3.81 µM | 0.898 | > 2000 µM |
| SCC-4 (head and neck, adherent) | 0.921 | > 2.56 µM | 0.975 | > 10.2 µM | 0.81 | 1310 µM |
| EFO-21 (ovary, adherent) | 0.862 | > 2.56 µM | 0.869 | > 10.2 µM | 0.972 | > 2000 µM |
| HSC-4 (head and neck, adherent) | 0.958 | > 2.56 µM | 0.972 | > 10.2 µM | 0.793 | 1270 µM |
| IST-SL1 (small cell lung carcinoma, semi-adherent) | 0.962 | > 2.56 µM | 0.793 | 4.85 µM | 0.949 | > 2000 µM |
| SW1710 (bladder, adherent) | 0.832 | 1.71 µM | 0.863 | 9.28 µM | 0.969 | > 2000 µM |
| KMOE-2 (acute myeloid leukaemia, suspension) | 0.932 | > 2.56 µM | 0.606 | 1.21 µM | 0.614 | 249 µM |
| SNU-182 (liver, adherent) | 0.91 | > 2.56 µM | 0.704 | 2.47 µM | 0.869 | 1980 µM |
| OE21 (oesophagus, adherent) | 0.893 | > 2.56 µM | 0.954 | > 10.2 µM | 0.686 | 510 µM |
| HT-115 (large intestine, adherent) | 0.985 | > 2.56 µM | 0.935 | > 10.2 µM | 0.976 | > 2000 µM |

| Cell Line | AUC [1, 3] | IC50 [1, 3] | AUC [1, 4] | IC50 [1, 4] | AUC [2] | IC50 [2] |
| --- | --- | --- | --- | --- | --- | --- |
| HT-3 (cervix, adherent) | 0.958 | > 2.56 µM | 0.918 | > 10.2 µM | 0.733 | 586 µM |
| SUP-HD1 (Hodgkin lymphoma, suspension) | 0.961 | > 2.56 µM | 0.77 | 3.7 µM | 0.739 | 579 µM |
| RC-K8 (B-cell lymphoma, suspension) | 0.993 | > 2.56 µM | 0.953 | > 10.2 µM | 0.854 | 1260 µM |
| OV-56 (ovary, adherent) |  |  | 0.888 | > 10.2 µM | 0.918 | > 2000 µM |
| NB69 (neuroblastoma, adherent) | 0.955 | > 2.56 µM | 0.876 | 8.21 µM | 0.83 | 1060 µM |
| Daoy (medulloblastoma, adherent) | 0.964 | > 2.56 µM | 0.937 | > 10.2 µM | 0.852 | 1330 µM |
| Hey (ovary, adherent) |  |  | 0.937 | > 10.2 µM | 0.851 | 1400 µM |
| LN-405 (glioma, adherent) | 0.967 | > 2.56 µM | 0.948 | > 10.2 µM | 0.889 | > 2000 µM |
| DU-4475 (breast, suspension) | 0.956 | > 2.56 µM | 0.872 | 6.79 µM | 0.81 | 823 µM |
| ONS-76 (medulloblastoma, adherent) | 0.968 | > 2.56 µM | 0.931 | > 10.2 µM | 0.97 | > 2000 µM |
| CHSA0108 (chondrosarcoma, adherent) | 0.953 | > 2.56 µM | 0.971 | > 10.2 µM | 0.926 | > 2000 µM |
| DB (B-cell lymphoma, suspension) | 0.983 | > 2.56 µM | 0.879 | > 10.2 µM | 0.552 | 176 µM |
| TMK-1 (stomach, adherent) | 0.899 | > 2.56 µM | 0.969 | > 10.2 µM | 0.799 | 1020 µM |
| OVISE (ovary, adherent) | 0.915 | > 2.56 µM | 0.829 | 9.4 µM | 0.778 | 1090 µM |
| DAN-G (pancreas, adherent) | 0.98 | > 2.56 µM | 0.918 | > 10.2 µM | 0.85 | 1230 µM |
| H2369 (mesothelioma, adherent) | 0.652 | 0.428 µM | 0.974 | > 10.2 µM | 0.904 | > 2000 µM |
| CAL-33 (head and neck, adherent) | 0.887 | > 2.56 µM | 0.797 | 4.85 µM | 0.768 | 752 µM |
| G-402 (soft tissue, adherent) | 0.765 | 1.25 µM | 0.63 | 1.65 µM | 0.841 | > 2000 µM |
| SK-MES-1 (lung squamous cell carcinoma, adherent) | 0.839 | 1.98 µM | 0.811 | 6.03 µM | 0.943 | > 2000 µM |
